Results reported in the antibiotic and cytotoxicity screens of Wong et al. (2023).
This is one part of the list.

Assays:
HSkMC = human skeletal muscle cells; experiment: cytotoxicity call (relative viability < 0.9); conditions: 10 µM
HepG2 = experiment: cytotoxicity call (relative viability < 0.9); conditions: 10 µM
S. aureus RN4220 = experiment: growth inhibition call (relative growth <= 0.2); conditions: 50 µM

Compound | cytotoxicity call (HSkMC) | cytotoxicity call (HepG2) | growth inhibition call (S. aureus RN4220)
C[C@H]1CCCN(S(=O)(=O)CCN)C1 | inactive | inactive | inactive
Oc1ccnc(S)n1 | inactive | inactive | inactive
Cc1noc(C)c1NC(=O)Nc1cccc2c1O[C@H](CN(C)S(=O)(=O)c1ccccc1)[C@H](C)CN([C@H](C)CO)C2=O | inactive | inactive | inactive
Cn1cnc(S(=O)(=O)N[C@H]2CC[C@@H](CC(=O)Nc3ccccc3)O[C@H]2CO)c1 | inactive | inactive | inactive
COc1ccc(S(=O)(=O)Nc2ccc3c(c2)C(=O)N([C@H](C)CO)C[C@H](C)[C@@H](CN(C)C(=O)Nc2ccc4c(c2)OCO4)OCCCC[C@H](C)O3)cc1 | inactive | inactive | inactive
CC(C)=CCc1c2c(c3occ(-c4ccc(O)c(O)c4)c(=O)c3c1O)C=CC(C)(C)O2 | active | active | inactive
C[C@@H]1CN([C@@H](C)CO)C(=O)c2cccc(NC(=O)C3CCCCC3)c2O[C@H]1CN(C)C(=O)Nc1ccc(C(F)(F)F)cc1 | inactive | inactive | inactive
Cc1ccc(S(=O)(=O)N(C)C[C@H]2Oc3ccc(NS(=O)(=O)c4c(C)noc4C)cc3CC(=O)N([C@@H](C)CO)C[C@H]2C)cc1 | inactive | inactive | inactive
C[C@@H]1CCCCO[C@@H](CN(C)C(=O)Nc2ccccc2)[C@@H](C)CN([C@@H](C)CO)C(=O)c2cc(NC(=O)Nc3cccc4ccccc34)ccc2O1 | inactive | inactive | inactive
C[C@@H]1CN([C@H](C)CO)C(=O)Cc2cc(NS(=O)(=O)c3ccc(Cl)cc3)ccc2O[C@H]1CN(C)Cc1ccc(-c2ccccc2)cc1 | active | inactive | inactive
COc1ccc(S(=O)(=O)N(C)C[C@@H]2Oc3c(NS(=O)(=O)c4ccccc4)cccc3C(=O)N([C@H](C)CO)C[C@@H]2C)cc1 | inactive | inactive | inactive
COc1ccc(CN(C)C[C@@H]2OCCCC[C@@H](C)Oc3ccc(NC(=O)NC(C)C)cc3C(=O)N([C@H](C)CO)C[C@@H]2C)cc1 | inactive | inactive | inactive
CC(C)NC(=O)N(C)C[C@H]1Oc2ccc(NS(=O)(=O)c3ccccc3)cc2CC(=O)N([C@H](C)CO)C[C@@H]1C | inactive | inactive | inactive
C[C@H](CO)N1C[C@H](C)[C@H](CN(C)Cc2ccc3c(c2)OCO3)OCc2ccccc2-c2c(n(C)c3ccccc23)C1=O | inactive | inactive | inactive
CS(=O)(=O)N[C@@H](C(=O)O)c1ccccc1 | inactive | inactive | inactive
C[C@H]1CN([C@@H](C)CO)C(=O)c2cccc(NS(=O)(=O)c3cn(C)cn3)c2O[C@@H]1CN(C)CC1CCCCC1 | inactive | inactive | inactive
CC(C)NC(=O)Nc1cccc2c1O[C@H](CN(C)S(=O)(=O)c1ccccc1)[C@@H](C)CN([C@H](C)CO)C2=O | inactive | inactive | inactive
Nc1ncnc2c1ncn2[C@@H]1O[C@H](C[C@@H](N)CC[C@H](N)C(=O)O)[C@@H](O)[C@H]1O | inactive | inactive | inactive
CCCC#Cc1cnc2c(c1)C(=O)N([C@@H](C)CO)C[C@H](C)[C@@H](CN(C)C(=O)c1ccc3c(c1)OCO3)O2 | inactive | inactive | inactive
CC(C)NC(=O)Nc1ccc2c(c1)CC(=O)N([C@@H](C)CO)C[C@@H](C)[C@H](CN(C)S(=O)(=O)c1ccccc1)O2 | inactive | inactive | inactive
COc1ccc(NC(=O)Nc2ccc3c(c2)CC(=O)N([C@H](C)CO)C[C@@H](C)[C@@H](CN(C)S(=O)(=O)c2c(C)noc2C)O3)cc1 | inactive | inactive | inactive
C[C@H]1CN([C@@H](C)CO)C(=O)c2cccc(NC(=O)C3CC3)c2O[C@@H]1CN(C)S(=O)(=O)c1ccccc1 | inactive | inactive | inactive
C[C@@H]1CN([C@H](C)CO)C(=O)Cc2cc(NC(=O)c3ccncc3)ccc2O[C@@H]1CN(C)Cc1ccc(Oc2ccccc2)cc1 | inactive | inactive | inactive
C[C@@H]1CN([C@@H](C)CO)C(=O)c2cc(NC(=O)Nc3cccc4ccccc34)ccc2O[C@@H](C)CCCCO[C@H]1CN(C)C | inactive | inactive | inactive
C[C@H]1CN(C(=O)CSc2nnc3c4ccccc4n(Cc4cccc(Cl)c4)c3n2)CCN1C(=O)c1ccccc1F | inactive | inactive | inactive
C[C@@H]1CN([C@H](C)CO)C(=O)c2cccc(NS(C)(=O)=O)c2O[C@H]1CN(C)C(=O)Nc1ccc(C(F)(F)F)cc1 | inactive | inactive | inactive
Cn1nc(CN2CCCC2=O)c2c1CN(C(=O)CO)C2 | inactive | inactive | inactive
C[C@@H]1CCCCO[C@@H](CN(C)Cc2ccccc2)[C@@H](C)CN([C@H](C)CO)C(=O)c2cc(NC(=O)C3CCCCC3)ccc2O1 | inactive | inactive | inactive

Compound | cytotoxicity call (HSkMC) | cytotoxicity call (HepG2) | growth inhibition call (S. aureus RN4220)
COc1ccccc1-c1ccc2c(c1)O[C@@H](CN(C)S(=O)(=O)c1ccccc1)[C@H](C)CN([C@H](C)CO)S2(=O)=O | inactive | inactive | inactive
Cc1noc(C)c1NC(=O)N(C)C[C@@H]1OCCCC[C@H](C)Oc2ccc(NC(=O)C3CCCCC3)cc2C(=O)N([C@@H](C)CO)C[C@H]1C | inactive | inactive | inactive
C[C@@H]1CN([C@@H](C)CO)C(=O)c2cccc(NS(C)(=O)=O)c2O[C@H]1CN(C)S(=O)(=O)c1ccccc1 | inactive | inactive | inactive
C[C@@H]1CN([C@H](C)CO)C(=O)c2cccc(NC(=O)c3ccncc3)c2O[C@@H]1CN(C)S(=O)(=O)c1ccc(F)cc1 | inactive | inactive | inactive
COCC(=O)N1C[C@@H](C)[C@H](OC)CN(C)C(=O)c2ccc(NC(=O)c3cc(C)on3)cc2OC[C@H]1C | inactive | inactive | inactive
COc1ccc(NC(=O)N(C)C[C@@H]2OCCCC[C@H](C)Oc3ccc(NS(=O)(=O)c4c(C)noc4C)cc3C(=O)N([C@@H](C)CO)C[C@H]2C)cc1 | inactive | inactive | inactive
COc1ccc(NC(=O)N(C)C[C@H]2OCCCC[C@@H](C)Oc3ccc(NC(=O)Nc4ccccc4)cc3C(=O)N([C@H](C)CO)C[C@@H]2C)cc1 | inactive | active | inactive
COc1ccc(S(=O)(=O)N2C[C@@H](O)COC[C@@H]3O[C@H](CC(=O)NCCCN4CCOCC4)CC[C@H]32)cc1 | inactive | inactive | inactive
CN(C)C(=O)c1ccc(-c2cccc(-c3nc(C(=O)NCc4ccccc4)cc4c3[C@H](CCO)N([S@@](=O)C(C)(C)C)C4)c2)cc1 | inactive | inactive | inactive
COc1ccc(NC(=O)Nc2ccc3c(c2)C(=O)N([C@@H](C)CO)C[C@@H](C)[C@H](CN(C)C(=O)Nc2ccc(C(F)(F)F)cc2)O3)cc1 | inactive | inactive | inactive
C[C@H](CO)N1C[C@H](C)[C@H](CN(C)Cc2ccc(Cl)c(Cl)c2)Oc2c(NC(=O)C3CCCCC3)cccc2C1=O | inactive | inactive | inactive
CC(C)(N)CN1CCCCC1 | inactive | inactive | inactive
Cc1ccc(S(=O)(=O)N(C)C[C@@H]2Oc3c(NS(=O)(=O)c4ccccc4)cccc3C(=O)N([C@H](C)CO)C[C@@H]2C)cc1 | inactive | inactive | inactive
C[C@H]1CN([C@@H](C)CO)S(=O)(=O)c2ccc(C#CCN(C)C)cc2O[C@@H]1CN(C)S(=O)(=O)c1cccc(F)c1 | inactive | inactive | inactive
Cc1noc(C)c1NC(=O)Nc1ccc2c(c1)CC(=O)N([C@@H](C)CO)C[C@@H](C)[C@@H](CN(C)S(=O)(=O)c1ccccc1)O2 | inactive | inactive | inactive
Cc1noc(C)c1NC(=O)N[C@@H]1CC[C@H](CC(=O)N2CCN(C)CC2)O[C@H]1CO | inactive | inactive | inactive
C[C@@H]1CCCCO[C@H](CN(C)Cc2ccc3c(c2)OCO3)[C@H](C)CN([C@@H](C)CO)C(=O)c2cc(NC(=O)Cc3ccccc3)ccc2O1 | inactive | inactive | inactive
COc1cccc(S(=O)(=O)N(C)C[C@@H]2Oc3ncc(C#CCN(C)C)cc3C(=O)N([C@@H](C)CO)C[C@@H]2C)c1 | inactive | inactive | inactive
COc1ccc(-c2cc(=O)c3c(O)cc(OC)c(OC)c3o2)c(OC)c1 | inactive | inactive | inactive
Cc1noc(C)c1NC(=O)N(C)C[C@@H]1Oc2ccc(NC(=O)c3ccncc3)cc2C(=O)N([C@@H](C)CO)C[C@H]1C | inactive | inactive | inactive
N[C@H]1CCS(=O)(=O)C1 | inactive | inactive | inactive
C[C@H](CO)N1C[C@H](C)[C@H](CN(C)Cc2ccc(-c3ccccc3)cc2)Oc2c(NC(=O)Nc3ccc(F)cc3)cccc2C1=O | inactive | inactive | inactive
CCCNC(=O)N1C[C@H](C)[C@@H](OC)CN(C)C(=O)c2ccc(NS(=O)(=O)CC(F)(F)F)cc2OC[C@@H]1C | inactive | inactive | inactive
C[C@@H]1CCCCO[C@@H](CN(C)S(=O)(=O)c2ccc(F)cc2)[C@H](C)CN([C@H](C)CO)C(=O)c2cc(NS(=O)(=O)c3cn(C)cn3)ccc2O1 | inactive | inactive | inactive
C[C@H](CO)N1C[C@H](C)[C@H](CN(C)C(=O)Nc2cccc3ccccc23)OCCCC[C@H](C)Oc2ccc(N(C)C)cc2C1=O | inactive | inactive | inactive
C[C@H](CO)N1C[C@H](C)[C@@H](CN(C)C(=O)CN(C)C)Oc2cc(-c3cncnc3)ccc2S1(=O)=O | inactive | inactive | inactive
CS(=O)(=O)N1[C@@H]2c3ccc(C4=CCCCC4)c(=O)n3C[C@H]1[C@H](CO)[C@H]2C(=O)N1CCOCC1 | inactive | inactive | inactive
